Reference: PubChem BioAssay AID504339 (National Center for Advancing Translational Sciences (NCATS), 2011)
The whole screen tested about 390,000 compounds, of which about 17,000 (4.4%) were called active. The shares of active, inactive and inconclusive entries below differ from those in the screen. Calls come from the whole dose curve; as a rule, active = well fitted inhibition curve with a large enough effect; inconclusive = small, poorly fitted or top-dose-only effect; inactive = no such curve, though single readings can be large or run the other way. A potency beside an inconclusive call is a rough fit, not a confirmed value.

These compounds were tested against Lysine-specific demethylase 4A (Homo sapiens) (UniProt O75164) (assay: qHTS Assay for Inhibitors of JMJD2A-Tudor Domain). Conditions: AlphaScreen JMJD2A-Tudor / H3K4me3 peptide binding; activity change, negative = inhibition: at 114 µM (top of the series).
% is set by controls: 0 for no effect and ±100 for the full control effect; potency is the fitted concentration of half-maximal effect; tags give direction and shape of the fitted curve.
Note: nearly all actives have a fitted effect of over 50% in size.

UniProt O75164, sequence (O75164 whole entry, looked up, the tested form may be a part): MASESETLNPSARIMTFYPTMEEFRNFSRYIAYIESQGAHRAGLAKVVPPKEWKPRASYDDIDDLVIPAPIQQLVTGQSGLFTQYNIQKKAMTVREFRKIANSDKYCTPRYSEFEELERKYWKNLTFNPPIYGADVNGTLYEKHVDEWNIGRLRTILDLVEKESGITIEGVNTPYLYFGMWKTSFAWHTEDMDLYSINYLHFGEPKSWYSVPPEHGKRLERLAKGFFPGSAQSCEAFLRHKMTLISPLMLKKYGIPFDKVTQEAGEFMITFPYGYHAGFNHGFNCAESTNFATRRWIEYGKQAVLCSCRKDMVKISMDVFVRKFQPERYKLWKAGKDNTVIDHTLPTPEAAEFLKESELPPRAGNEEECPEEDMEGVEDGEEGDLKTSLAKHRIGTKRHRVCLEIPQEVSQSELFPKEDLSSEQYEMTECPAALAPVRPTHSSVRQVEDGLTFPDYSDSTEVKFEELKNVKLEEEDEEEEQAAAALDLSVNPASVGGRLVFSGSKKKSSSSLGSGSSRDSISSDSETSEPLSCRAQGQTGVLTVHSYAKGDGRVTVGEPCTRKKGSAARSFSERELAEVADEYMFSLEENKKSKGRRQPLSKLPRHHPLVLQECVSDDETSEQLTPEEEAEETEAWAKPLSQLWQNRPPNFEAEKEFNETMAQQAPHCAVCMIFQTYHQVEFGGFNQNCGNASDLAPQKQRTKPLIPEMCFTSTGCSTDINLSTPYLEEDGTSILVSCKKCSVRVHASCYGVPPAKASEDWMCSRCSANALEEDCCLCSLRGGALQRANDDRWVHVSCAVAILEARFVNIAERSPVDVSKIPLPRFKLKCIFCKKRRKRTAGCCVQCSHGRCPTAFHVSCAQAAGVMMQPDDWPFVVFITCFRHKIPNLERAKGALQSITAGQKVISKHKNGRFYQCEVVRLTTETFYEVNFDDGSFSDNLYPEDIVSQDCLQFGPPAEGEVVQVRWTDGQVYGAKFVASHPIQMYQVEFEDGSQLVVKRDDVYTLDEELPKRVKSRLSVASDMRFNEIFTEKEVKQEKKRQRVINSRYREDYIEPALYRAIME

Row | SMILES | Potency | activity change, negative = inhibition
1 | O=C1N(Cc2cccc(Cl)c2)C[C@@H]2C[C@@H](c3cccn3-c3nccs3)N3CCC[C@@]123 | inconclusive: 28.2 µM [inhibitor, partial curve] | –
2 | CC(C)c1ccc(C2(C)NC(=O)N(CC(=O)NCC3COc4ccccc4O3)C2=O)cc1 (stereo not drawn) | inactive | –
3 | Cc1ccccc1NC(=S)NCCC(c1ccccc1)c1ccccc1 | inconclusive: 50.1 µM [inhibitor, partial curve, poor fit] | –
4 | C=C(C)COc1ccc(-c2nc(N)ncc2Oc2ccccc2OCC)c(O)c1 | inconclusive: 56.2 µM [inhibitor, partial curve] | –
5 | O=C1NNC(=O)C1c1ccccc1 | inconclusive: 89.1 µM [inhibitor, single point] | –
6 | S=C(Nc1ccc(Cl)cc1)c1nc2ccccc2[nH]1 | inconclusive: 15.8 µM [inhibitor, partial curve] | –
7 | Cn1cccc1C(=O)NC(=O)CSc1nnc(C2CC2)n1-c1ccccc1 | inconclusive: 89.1 µM [inhibitor, partial curve] | –
8 | Cc1nc(C)c(C(=O)N(c2ccccc2F)C(C(=O)NCC2CCCO2)c2ccccc2)s1 (stereo not drawn) | inconclusive: 31.6 µM [inhibitor, single point] | –
9 | COC(=O)C1=C(C)NC(C)=C(C(=O)O[C@@H]2CCCN(Cc3ccccc3)C2)[C@@H]1c1cccc([N+](=O)[O-])c1 | active: 44.7 µM | –
10 | C=CCn1cc(C(=O)NCc2ccc(Cl)cc2)c(=O)c2cc(S(=O)(=O)N(CC)CC)ccc21 | inconclusive: 20 µM [inhibitor, partial curve] | –
11 | COc1ccc(C(=O)n2nc(-c3ccco3)nc2N)cc1 | inconclusive: 79.4 µM [inhibitor, partial curve] | –
12 | O=[N+]([O-])c1ccc(N2CCCC2)nc1N1CCCC1 | inconclusive: 50.1 µM [inhibitor, partial curve] | –
13 | Cc1ccc(CN2CCc3nc(N4CCN(C)CC4)ncc3C2)cc1 | inconclusive: 89.1 µM [inhibitor, single point] | –
14 | O=C(NC1CCCCC1)c1cc(-c2cccs2)on1 | inactive | –
15 | O=[N+]([O-])c1ccc(N/N=C/c2c[nH]c3ccccc23)cc1 | inconclusive: 11.2 µM [inhibitor, partial curve] | –
16 | Cc1c(C)n2c(SCC(=O)Nc3ccc4c(c3)OCCO4)nnc2[nH]c1=O | inconclusive: 39.8 µM [inhibitor, partial curve, poor fit] | –
17 | O=C(COc1ccc2ccccc2c1)NNC(=O)Nc1ccccc1F | inconclusive: 56.2 µM [inhibitor, partial curve] | –
18 | CC(C)CCC1(C)NC(=O)N(CC(=O)c2ccc[nH]2)C1=O (stereo not drawn) | inconclusive: 79.4 µM [inhibitor, partial curve] | –
19 | O=C(N=Nc1c(O)[nH]c2ccc([N+](=O)[O-])cc12)c1ccccc1[N+](=O)[O-] | inconclusive: 50.1 µM [inhibitor, partial curve, poor fit] | –
20 | COCCN(CCOC)S(=O)(=O)c1ccc(C(=O)Nc2sc3c(c2C(N)=O)CCCCC3)cc1 | inactive | –
21 | CC1CCCN(CCOc2ccc3ccccc3c2Br)C1 (stereo not drawn) | – | inconclusive: -100% [inhibitor]
22 | Cc1cccc(NC(=O)Cn2cnc3c(oc4ccccc43)c2=O)c1C | inconclusive: 22.4 µM [inhibitor, full curve] | –

Row | SMILES | Potency | activity change, negative = inhibition
23 | COC(=O)/C=c1/s/c(=C(/C#N)C(=O)N2CCOCC2)n(-c2ccccc2)c1=O | – | inactive: -11.5% [at 11.4 µM]
24 | O=C(N/N=C/c1ccccn1)C1CC1 | active: 1.26 µM | –
25 | COc1ccc(C(C#N)=C2C=CC(=NO)C=C2)cc1 | active: 15.8 µM | –
26 | Cc1ccc(C)c(NC(=O)C(=O)NCCc2csc(-c3cccc(F)c3)n2)c1 | inactive | –
27 | CCn1c(C)cc(C(=O)COC(=O)c2cccnc2SC)c1C | inconclusive: 56.2 µM [inhibitor, partial curve] | –
28 | O=C(N/N=C/c1cccc(OC2CSC2)c1)c1ccccc1O | inconclusive: 56.2 µM [inhibitor, partial curve] | –
29 | COc1ccccc1CNC(=O)Cn1c(-c2cccs2)cc2cc(F)ccc21 | inactive | –
30 | Cc1ccc(NS(=O)(=O)c2cc3c(cc2Cl)NC(=O)C3)cc1C | inconclusive: 56.2 µM [inhibitor, partial curve] | –
31 | CCc1ccc(OC(C)c2nnc(SCC(=O)Nc3ncccc3C)n2C)cc1 (stereo not drawn) | inconclusive: 89.1 µM [inhibitor, single point] | –
32 | CCc1n[nH]c(=S)n1/N=C/c1c(O)ccc2ccccc12 | active: 14.1 µM | –
33 | Cn1c(-c2ccc(-c3ccccc3)cc2)c[nH]c1=S | inconclusive: 56.2 µM [inhibitor, partial curve] | –
34 | Cn1c(=O)n(Cc2ccccc2)c(=O)c2c1nc1n2CCCN1CCc1ccccc1 | inconclusive: 20 µM [inhibitor, full curve] | –
35 | Cn1c(C(=O)N2CCN(Cc3ccc4c(c3)OCO4)CC2)cc2c(=O)n(C)c3ccccc3c21 | inconclusive: 100 µM [inhibitor, single point] | –
36 | O=C1NC(c2ccc(Cl)c([N+](=O)[O-])c2)Nc2ccccc21 (stereo not drawn) | inactive | –
37 | COc1cc(OC)cc(C(=O)OCc2ccc([N+](=O)[O-])cc2)c1 | inactive | –
38 | CCOc1ccccc1Nc1nnc(SCC(=O)Nc2nc(-c3ccc(OC)cc3)cs2)s1 | inconclusive: 31.6 µM [inhibitor, single point] | –
39 | CCN(CC)c1ccc(C(=O)NNC(=O)c2cccn2C)cc1 | inconclusive: 28.2 µM [inhibitor, full curve] | –
40 | Cc1c(C)n(C)c2ccc(C(=O)N3CCN(c4ccccn4)CC3)cc12 | inconclusive: 56.2 µM [inhibitor, partial curve] | –
41 | Cc1ccnc(NC(=O)c2cccs2)c1 | inconclusive: 89.1 µM [inhibitor, single point] | –
42 | COc1ccc(C(CNC(=O)c2cccc(S(=O)(=O)N3CCc4ccccc43)c2)N(C)C)cc1 (stereo not drawn) | inconclusive: 56.2 µM [inhibitor, partial curve] | –
43 | Nc1c(Br)c(=O)[nH]c(=O)n1-c1ccc(F)cc1 | inactive | –
